Laboratory results as given in PubChem BioAssay AID624418 (National Center for Advancing Translational Sciences (NCATS), 2012).
In all, about 410,000 compounds went through this assay and about 530 (0.13%) were called active. The inconclusive results got no clear call from the source; some entries with a clear call stand among them for comparison. Calls follow the shape of the dose curve; as a rule, active = well fitted inhibition curve with a large enough effect; inconclusive = small, poorly fitted or top-dose-only effect, or another doubt; inactive = no such curve, though single readings can be large or run the other way. Where the call is inconclusive, the potency comes from a doubtful curve fit.

Test: qHTS of GLP-1 Receptor Inverse Agonists: Cytotox Screen
Conditions: HEK293 cAMP-luciferase reporter cells, luminescence, 24 h; series mostly up to 38.3 µM
Outline: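 1536-well qHTS counterscreen of the MLSMR; 200 cells/uL, 12 h pre-incubation, 23 nL cpd, 24 h at 37 deg C 5% CO2, luciferase detection reagent, 12 min RT, luminescence. Inhibition = undesired.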
Potency is read from the fitted curve at half-maximal effect.

| SMILES | Potency |
| --- | --- |
| COc1ccc(N2CCN(C(=O)C(C)n3c(=O)cc(C(F)(F)F)c4c(C)nn(C)c43)CC2)cc1 (stereo not given) | inactive |
| COc1ccc(C2C(C(=O)N3CCOCC3)=C(C)NC3=C2C(=O)CC(C)(C)C3)c(OC)c1 (stereo not given) | inactive |
| Cc1ccc(NC(=O)C2CCCN2S(=O)(=O)c2ccc3c(c2)C(C)(C)C(=O)N3C)cc1 (stereo not given) | inactive |
| COC(=O)c1c(NC(NC(=O)C(C)(C)C)C(Cl)(Cl)Cl)sc2c1CCC2 (stereo not given) | inactive |
| COc1ccccc1NC(=O)CSc1nc2ccccc2cc1Cc1ccccc1 | inactive |
| CCOc1ccc2nc(N(CCN(CC)CC)C(=O)/C=C/c3cccs3)sc2c1 | inactive |
| CCCCn1c(N)c(N(CC(C)C)C(=O)c2cccc(S(=O)(=O)N3CCCCCC3)c2)c(=O)[nH]c1=O | inactive |
| Cc1ccccc1-c1nc(CN2CCC(C(=O)NCc3cccnc3)CC2)c(C)o1 | inconclusive: 28.2 µM [inhibitor, single point] |
| CN(C)c1ccc(N=Cc2nc(-c3ccccc3)oc2O)cc1 | inactive |
| Brc1ccc2c(c1)-c1ccccc1C1=NCCN12 | inconclusive: 8.91 µM [inhibitor, partial curve, poor fit] |
| Cc1ccccc1N=C1SCCN1C(=O)CN1C(=O)NC2(CCCC2)C1=O | inconclusive: 28.2 µM [inhibitor, single point] |
| COc1c(NC=O)c2c(c([N+](=O)[O-])c1OC)C(=O)OC2 | inconclusive: 12.6 µM [inhibitor, single point] |
| Cc1ccn2c(NCc3ccccc3)c(-c3cccs3)nc2c1 | inconclusive: 22.4 µM [inhibitor, single point] |
| COc1ccc(-c2cc(C(=O)c3c(N)n(C)c(=O)n(C)c3=O)c3ccccc3n2)cc1 | inactive |
| O=C(NCCCO)c1cc2c(cn1)[nH]c1ccccc12 | inconclusive: 31.6 µM [inhibitor, partial curve, poor fit] |
| Cc1ccccc1NC(=S)Nc1ccccn1 | inconclusive: 4.47 µM [inhibitor, partial curve] |
| CC1=CC(=NOC(=O)c2cccc([N+](=O)[O-])c2)C=C(C)C1=O | inconclusive: 28.2 µM [inhibitor, single point] |
| CCOc1ccc(C(=O)NCC(=O)OCC(=O)Nc2ccc(C)c(S(=O)(=O)N(C)C)c2)cc1 | inactive |
| COc1ccc2c(c1)c1c(c(=O)n(-c3cccc(C)c3)c(=O)n1CC(=O)NCC1CCCO1)n2C (stereo not given) | inactive |
| CCc1ccc(NC(=O)Cn2nnc(-c3ccc(C)cc3-n3cnnn3)n2)cc1 | inconclusive: 28.2 µM [inhibitor, single point] |
| CC1CN(c2ccc(NS(=O)(=O)c3ccccc3)cc2C(=O)O)CC(C)O1 (stereo not given) | inactive |
| CC(CNC(=S)Nc1cc(F)cc(F)c1)CSc1ccc(Cl)cc1 (stereo not given) | inconclusive: 20 µM [inhibitor, single point] |

| SMILES | Potency |
| --- | --- |
| CCCOc1ccc(C(=O)CCN2CCCCC2)cc1 | inconclusive: 10 µM [inhibitor, single point] |
| CCCC(=O)N/C(N)=N/c1nc(C)c2ccccc2n1 | inconclusive: 1 µM [inhibitor, full curve, poor fit] |
| CCCCc1oc2c(c(=O)c1C)C(=O)CC(c1ccccc1)C2 (stereo not given) | inconclusive: 31.6 µM [inhibitor, partial curve, poor fit] |
| COc1ccccc1Nc1nc(N)nc(CN2CCN(Cc3ccccc3)CC2)n1 | inconclusive: 0.447 µM [inhibitor, full curve, poor fit] |
| Cc1nnc(N/N=C/c2ccc(Br)cc2)n1N | inconclusive: 11.2 µM [inhibitor, single point] |
| CS/C(N)=N/N=C/c1c(O)ccc2ccccc12 | inconclusive: 3.55 µM [inhibitor, partial curve, poor fit] |
| COc1ccc2c(c1)CCC(C)N2C(=O)C(=O)c1c[nH]c2ccccc12 (stereo not given) | inconclusive: 10 µM [inhibitor, partial curve, poor fit] |
| CCCN(CCC)C(=O)Cc1ccc(F)cc1 | inconclusive: 28.2 µM [inhibitor, single point] |
| Clc1cccc(Cl)c1/C=C/c1nc2ccccc2[nH]1 | inconclusive: 15.8 µM [inhibitor, single point] |
| CSc1ccc(NC(=O)NCCCN2CCC(Cc3ccccc3)CC2)cc1 | inconclusive: 28.2 µM [inhibitor, single point] |
| CC(C(Sc1ccccc1N)c1ccccc1)[N+](=O)[O-] (stereo not given) | inconclusive: 11.2 µM [inhibitor, single point] |
| CCOC(=O)c1c(C)n(C)c2ccc(OCC(O)Cn3c(C)nc4ccccc43)cc12 (stereo not given) | inconclusive: 11.2 µM [inhibitor, partial curve, poor fit] |
| CCOc1ccc(C(=O)O/N=C(\N)c2ccccn2)cc1 | inconclusive: 28.2 µM [inhibitor, single point] |
| COc1ccc(/C(N)=N/OC(=O)c2c(-c3ccccc3Cl)noc2C)cc1OC | inconclusive: 28.2 µM [inhibitor, single point] |
| O=C(NNC(=O)c1csc(-c2cnccc2C(F)(F)F)n1)c1ccc(C(F)(F)F)cc1 | inconclusive: 14.1 µM [inhibitor, single point] |
| CCCCn1c(O)c(/C=C/C=C/C=Nc2ccccc2)sc1=S | inconclusive: 28.2 µM [inhibitor, single point] |
| COC(=O)c1cc(C(=O)N2CCN(c3cccc(Cl)c3)CC2)cc([N+](=O)[O-])c1 | inconclusive: 3.55 µM [inhibitor, partial curve, poor fit] |
| COC(=O)Nc1nc(C)c(C(=O)c2ccccc2)s1 | inconclusive: 2 µM [inhibitor, partial curve, poor fit] |
| O=C(CCc1ccccc1)N/N=C/c1cc(Br)ccc1O | inconclusive: 5.01 µM [inhibitor, full curve] |
| O=C(COC(=O)C1(c2ccccc2F)CCCC1)NCc1cccs1 | inactive |
| Cc1ccc(NC(=O)Cn2ccn(-c3ccc(F)c(F)c3)c(=O)c2=O)cc1C | inactive |
| NC(=S)N/N=C/c1c[nH]c2ccc(OCc3ccccc3)cc12 | inconclusive: 6.31 µM [inhibitor, partial curve, poor fit] |

| SMILES | Potency |
| --- | --- |
| NCCCn1c(C(=O)c2ccc(Cl)cc2)c2ccc([N+](=O)[O-])cc2[n+]1[O-] | inconclusive: 3.98 µM [inhibitor, partial curve, poor fit] |
| Cc1cc(C)c(C)c(C(=O)CSc2nnc(-c3ccc4[nH]c(C)c(C)c4c3)o2)c1C | inconclusive: 12.6 µM [inhibitor, partial curve, poor fit] |
| CC(C)NC(=S)NC(=O)c1ccc(-c2ccccc2)cc1 | inconclusive: 10 µM [inhibitor, partial curve, poor fit] |
| Cn1c(=O)c2sccc2n2c(CCCC(=O)NCc3ccc(F)cc3)nnc12 | inconclusive: 28.2 µM [inhibitor, single point] |
| COc1ccc(C2CC(=O)Oc3c(C(CCN4CCCC(C)C4)c4ccc(N(C)C)cc4)c(OC)cc(OC)c32)cc1 (stereo not given) | inconclusive: 35.5 µM [inhibitor, partial curve, poor fit] |
| COc1ccccc1N(C(=O)CNC(=O)c1ccco1)C(C(=O)NC1CCCC1)c1ccco1 (stereo not given) | inconclusive: 0.501 µM [inhibitor, full curve, poor fit] |
| Cc1nc2ccccc2c(=O)n1/N=C/c1c(O)ccc2oc3c(c12)CCCC3 | inconclusive: 28.2 µM [inhibitor, single point] |
| CCC1=C(OC(=O)N(CC)CC)N2C(=O)OC(=NCC3CC3)[C@]2(Cc2ccccc2)[C@H]2C1=CC[C@H]1C(=O)N(c3ccccc3)C(=O)[C@H]12 | inconclusive: 28.2 µM [inhibitor, partial curve, poor fit] |
| N#C/C(=C/c1cn(-c2ccccc2)nc1-c1cccc(OCc2ccc(F)cc2)c1)C(=O)NCCCn1ccnc1 | inconclusive: 28.2 µM [inhibitor, single point] |
| N/C(=N\OC(=O)COc1cc(Cl)c(Cl)cc1Cl)c1ccncc1 | inactive |
| COc1ccc(/C=C/c2cc[n+](C(=O)Cc3ccccc3)cc2)cc1 | inconclusive: 14.1 µM [inhibitor, single point] |
| Nc1nc(N)c2cc(Sc3ccc4ccccc4c3)ccc2n1 | inconclusive: 28.2 µM [inhibitor, single point] |
| Cc1ccc(O)c(NC(=O)c2ccccc2-c2ccccc2C(=O)O)c1 | inactive |
| CCc1ccc(OCC(=O)N/N=C/c2cc([N+](=O)[O-])ccc2N2CCOCC2)cc1 | inconclusive: 31.6 µM [inhibitor, single point] |
| COc1ccc(S(=O)(=O)Nc2ccc3c(c2)CCCN3S(=O)(=O)c2ccc(C)cc2)cc1F | inactive |
| CCOc1ccc(S(=O)(=O)Nc2cc(OC)ccc2OC)cc1 | inconclusive: 0.708 µM [inhibitor, full curve, poor fit] |
| COc1ccc(OCC(=O)Nc2c(C(=O)N3CCC(N4CCCCC4)CC3)oc3ccccc23)cc1 | inconclusive: 31.6 µM [inhibitor, single point] |
| Cc1cc(CN(C)C)c(O)c(C2(C)CCCCC2)c1 | inactive |
| COc1ccc(CCNC(=O)C(=O)NCC2CCCN2S(=O)(=O)c2cc(C)ccc2C)cc1 (stereo not given) | inconclusive: 28.2 µM [inhibitor, single point] |
| O=C(N/N=C1/CCSC1)c1cccc([N+](=O)[O-])c1 | inconclusive: 11.2 µM [inhibitor, partial curve, poor fit] |
| COc1cccc(/C=N/NC(=S)NC2CC3CC2C2C=CCC32)c1O (stereo not given) | inconclusive: 12.6 µM [inhibitor, single point] |
